Assay results published in paper PMC4336329 (PLoS ONE, 2015).
Hit rate of the full screen: of about 310,000 compounds, about 2,200 (0.71%) showed an effect of 50% or more. The effect is printed as a negative number. Some of the results follow.

Biological target: human ether-à-go-go-related gene (hERG) potassium channel (human, UniProt Q12809)
Assay: primary screen, population patch clamp on CHO cells stably expressing hERG

Sequence of human ether-à-go-go-related gene (hERG) potassium channel (Q12809 whole entry, looked up): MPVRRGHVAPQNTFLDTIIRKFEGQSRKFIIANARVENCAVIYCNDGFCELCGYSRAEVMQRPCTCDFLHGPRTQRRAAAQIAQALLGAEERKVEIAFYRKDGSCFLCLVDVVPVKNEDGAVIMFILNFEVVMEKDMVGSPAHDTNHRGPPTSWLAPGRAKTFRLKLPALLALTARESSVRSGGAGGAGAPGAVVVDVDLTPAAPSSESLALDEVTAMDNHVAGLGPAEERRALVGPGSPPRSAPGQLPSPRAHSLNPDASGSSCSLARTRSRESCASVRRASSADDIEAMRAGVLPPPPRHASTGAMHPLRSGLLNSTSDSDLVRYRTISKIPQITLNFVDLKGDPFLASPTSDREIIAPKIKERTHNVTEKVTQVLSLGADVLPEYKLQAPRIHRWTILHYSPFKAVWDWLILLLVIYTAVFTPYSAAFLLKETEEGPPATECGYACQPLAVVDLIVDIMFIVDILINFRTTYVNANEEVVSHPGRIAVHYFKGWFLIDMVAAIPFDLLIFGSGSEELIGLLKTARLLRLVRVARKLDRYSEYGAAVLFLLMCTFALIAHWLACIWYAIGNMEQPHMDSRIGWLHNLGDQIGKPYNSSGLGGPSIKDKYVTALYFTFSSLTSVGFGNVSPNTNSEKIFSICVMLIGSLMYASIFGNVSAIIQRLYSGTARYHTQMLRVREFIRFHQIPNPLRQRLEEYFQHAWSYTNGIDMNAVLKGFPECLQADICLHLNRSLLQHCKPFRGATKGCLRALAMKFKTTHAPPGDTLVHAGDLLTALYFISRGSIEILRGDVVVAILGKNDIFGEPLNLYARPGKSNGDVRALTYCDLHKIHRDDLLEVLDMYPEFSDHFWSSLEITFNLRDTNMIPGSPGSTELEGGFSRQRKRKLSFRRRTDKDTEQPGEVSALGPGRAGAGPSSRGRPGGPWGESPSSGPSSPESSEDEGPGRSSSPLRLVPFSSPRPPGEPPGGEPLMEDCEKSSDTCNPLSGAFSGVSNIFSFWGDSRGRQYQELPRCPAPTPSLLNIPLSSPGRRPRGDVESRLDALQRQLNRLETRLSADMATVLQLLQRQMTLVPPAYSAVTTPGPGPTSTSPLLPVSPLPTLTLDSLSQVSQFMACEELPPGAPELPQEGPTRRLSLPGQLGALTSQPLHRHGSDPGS

| Compound | hERG current change (%, negative = inhibition) at 1uM [%] |
| --- | --- |
| Cc1c(C)c2ccc(OC(C)C(=O)N[C@@H](Cc3c[nH]c4ccccc34)C(=O)O)c(C)c2oc1=O (stereo partly drawn) | 8.32 |
| CC(=O)O/N=C(/C)c1ncc(C(F)(F)F)cc1N1CCOCC1 | 18 |
| O=c1[nH]c2ccc(NCc3ccc(OCc4ccccc4Cl)cc3)cc2[nH]1 | 10.8 |
| CCc1ccc(NC(=O)Cc2cn(C)c3ccccc23)cc1 | 14.5 |
| Cc1cc(N)n2nc(-c3ccccc3)cc2n1 | 0.508 |
| N/C(CN1CCCC1=O)=N\OC(=O)c1ccc(Cl)c(Cl)c1 | -0.813 |
| CCCN1C(=O)c2ccccc2NC1c1ccc(C)cc1 (stereo not drawn) | 8.89 |
| COc1cccc(N2CCN(C(=O)C3CCN(S(=O)(=O)c4ccc5c(c4)CC(C)N5C(C)=O)CC3)CC2)c1 (stereo not drawn) | -5.86 |
| COc1cc2[nH]c(C(=O)N3CCc4ccccc43)cc2c(OC)c1OC | 6.43 |
| O=C(c1cccc(S(=O)(=O)NCc2ccccc2)c1)N1CCCCC1 | 9.32 |
| CCN(CC(=O)Nc1ccc(NC(C)=O)cc1)C(=O)c1ccc2c(c1)S(=O)(=O)N=C1CCCCCN12 | 12.6 |
| Cc1c([N+](=O)[O-])c(C(=O)Nc2ccc3c(c2)OCCO3)nn1C | 14.7 |
| CN(C)S(=O)(=O)N1CCC(Oc2ccc(C(=O)NCc3cnn(C)c3)cc2)CC1 | 15.7 |
| COc1ccc(CN2CC[C@H]3C=CC[C@@H](C(=O)Nc4ccc(Cl)c(C(F)(F)F)c4)[C@H]3C2=O)cc1OC | 3.9 |
| CCN(CC)CCCNC(=O)C1CCN(c2ncnc3c2sc2cccc(F)c23)CC1 | -8.82 |
| CC(c1ccccc1)(c1ccccc1)c1ccncc1 | 8.99 |
| CC1C=CCC2C(=O)N(c3ccc(Cl)cc3O)C(=O)C12 (stereo not drawn) | -0.941 |
| CNC(=O)c1ccc(-c2sc3nc(N4CCOCC4)c4c(c3c2N)CC(C)(C)OC4)o1 | 11 |
| O=C(NCC(c1ccc(F)cc1)N1CCOCC1)c1c(F)cccc1F (stereo not drawn) | 10.7 |
| COc1cc(/C=N/n2c(C)n[nH]c2=S)ccc1OCc1ccc(F)cc1 | 2.53 |
| CCOCCCNC(=O)C(NC(=O)c1ccc(NC(C)=O)cc1)c1ccc(OC)cc1 (stereo not drawn) | 2.72 |
| CCCCN1CNC(=S)N(c2ccc(C(=O)OCC)cc2)C1 | 10.3 |

| Compound | hERG current change (%, negative = inhibition) at 1uM [%] |
| --- | --- |
| COCCCNC(=S)N/N=C/c1ccc2ccccc2c1 | 7.25 |
| CCOc1ccc(C(=O)NCC(=O)OCC(=O)Nc2ccccc2OCC)cc1 | 9.86 |
| Cc1cc(OCC(=O)NCc2ccccn2)c2c(C)c(Cc3ccccc3)c(=O)oc2c1 | 8.53 |
| O=C1CC(=O)C(n2cncn2)C(c2ccc(Cl)cc2Cl)C1 (stereo not drawn) | 12.3 |
| O=C(Cn1c(=O)c2c3c(sc2n(Cc2ccccc2)c1=O)CCCC3)NCCO | 13.8 |
| CC(=O)Nc1ccc(NC(=O)CSc2nnc(-c3cccs3)n2N)cc1 | 7.75 |
| CC1=C(C(=O)OC2CCC(C)CC2)C(c2ccc(O)c([N+](=O)[O-])c2)NC(=O)N1 (stereo not drawn) | 11.4 |
| Nc1cc(N)cc(-c2nc3ccccc3o2)c1 | 12.7 |
| Cc1cc(/C=C(\C#N)C(=O)N2CCCCC2)cc(C)c1O | 4.54 |
| c1ccc2oc(-c3ccc4nc[nH]c4c3)nc2c1 | 10.9 |
| CC(C)(C)C(=O)Nc1ccc(C(=O)NNC(=O)Cc2ccccc2)cc1 | 11 |
| COc1ccc(-c2nc(N)ncc2-c2csc(C)n2)c(O)c1 | 10.4 |
| CCOc1ccc(CNC(=O)C(C)n2ccc3cc(S(=O)(=O)N4CCCC4)ccc32)cc1 (stereo not drawn) | 15.4 |
| O=C(CSc1nnc(-c2cnccn2)n1Cc1ccco1)c1ccccc1 | -15.5 |
| CS(=O)(=O)Nc1ccc(C(=O)NCCSCc2c(F)cccc2Cl)cc1 | -11.9 |
| Cc1nc2ccc(NC(=O)c3c(-c4ccccc4)noc3C)cc2s1 | 0.677 |
| Cc1ccc(S(=O)(=O)C2(C(=O)N3CCN(c4cc(C)ccc4C)CC3)CC2)cc1 | -2.08 |
| COc1cccc(NC(=S)Nc2ccc(O)cc2)c1 | 10.1 |
| O=C(NCc1ccccc1)c1cccc(S(=O)(=O)N2CCOCC2)c1 | 7.92 |
| CC(=O)C1=C(c2ccccc2)NC(=O)NC1c1ccccc1OCC#N (stereo not drawn) | 7.7 |
| Cc1cccc(N2CCN(C(=O)CCC(=O)N3CC(C)Oc4ccc(C)cc43)CC2C)c1 (stereo not drawn) | 3.65 |
| CCCOc1ccc(CN(CCO)CCO)cc1[N+](=O)[O-].Cl | 0.763 |

| Compound | hERG current change (%, negative = inhibition) at 1uM [%] |
| --- | --- |
| COc1ccc(C)cc1S(=O)(=O)Nc1ccccc1 | 2.08 |
| COc1ccc(C(C)=O)cc1COC(=O)c1cccnc1SC | 5.55 |
| CC(C)Cn1c(=S)[nH]c2ccccc2c1=O | 10.7 |
| CCC(C)N1C(=O)CCC1C(=O)N1CCN(c2ccc(F)cc2)CC1 (stereo not drawn) | -11.1 |
| CC(=O)/C(=N/Nc1cccc(C)c1)N1CCOCC1.Cl | 5.2 |
| CCOC(=O)CSc1nc2cc(OCC)ccc2cc1C#N | 10.7 |
| CCCC(=O)c1ccc(N2CCN(C(=O)c3ccccc3)CC2)c(F)c1 | -23.1 |
| Cc1ccc(C)c(NC(=S)NC(NC(=O)/C=C/c2ccccc2)C(Cl)(Cl)Cl)c1 (stereo not drawn) | 7.55 |
| Cc1ccc(-c2csc(NC(=O)C3CC=CCC3C(=O)O)c2C(=O)OC(C)C)cc1 (stereo not drawn) | 4.06 |
| COc1ccc(S(=O)(=O)N2CCN(CC(=O)N3CCc4ccccc4C3)CC2)cc1OC | 13.2 |
| Cc1ccccc1N1CC(C(=O)Nc2nnc(SCc3cccnc3)s2)CC1=O (stereo not drawn) | -6.39 |
| COc1ccccc1CC(=O)Nc1cc(Cl)ccc1O | 1.15 |
| COC(=O)C1=CN(CCCN2CCCC2=O)C=C(C(=O)OC)C1c1ccccc1C(F)(F)F | -10.1 |
| CN(C(=O)Cc1csc(-c2ccccc2)n1)c1c(N)n(Cc2ccccc2)c(=O)[nH]c1=O | 9.36 |
| Cc1ccc(OCc2ccc(C(=O)Nc3nc4ccccc4n3C)o2)c([N+](=O)[O-])c1 | 19.9 |
| CCN(CC(=O)Nc1ccc(OC)cc1)C(=O)c1cc(-c2cccs2)nn1-c1ccccc1 | 8.42 |
| CN(C)C(=O)Oc1ccc(-c2cn3cc(Cl)ccc3n2)cc1 | 11.4 |
| O=C(c1ccccc1Cl)N1CCC(n2cccc2)CC1 | 7.5 |
| COC(C(=O)Nc1ccccc1F)c1ccccc1 (stereo not drawn) | 10.5 |
| COCCNC(=O)C(=O)N/N=C(\C)CC(=O)Nc1ccc2c(c1)OCO2 | 17.6 |
| CC1(C)NC(=O)N(CC(=O)Nc2nc(-c3ccc(F)cc3)cs2)C1=O | 0.98 |
| COc1cccc2c1OC1(C)CC2N(C(=O)c2ccco2)C(=S)N1c1ccc(F)cc1 (stereo not drawn) | 10.6 |

| Compound | hERG current change (%, negative = inhibition) at 1uM [%] |
| --- | --- |
| O=C(NNC(=S)NC1CCCCC1)c1ccccc1O | 7.32 |
| CCOc1ccc(CN2CCNC(=O)C2CC(=O)NCC2CCOCC2)cc1 (stereo not drawn) | 7.4 |
| O=C(O)c1cccc(Cn2c(Cl)c(/C=N/NC(=O)c3ccccc3)sc2=O)c1 | 17.5 |
| O=C1NC(=Nc2cccnc2)S/C1=C\c1cccc(F)c1 | 4.36 |
| Cc1ccc(/C=N/OC(=O)c2c(C)noc2-c2snnc2C)cc1 | 12.3 |
| CCOCCn1c(SC)nc2c1c(=O)[nH]c(=O)n2C | 12.8 |
| CSc1nnc(N2C(=O)C(O)=C(C(=O)c3ccco3)C2c2ccc(F)cc2)s1 (stereo not drawn) | 10 |
| CCN(c1ccccc1)S(=O)(=O)c1cccc(C(=O)NCc2ccccc2CN2CCOCC2)c1 | -2.79 |
| COc1ccc(COC(=O)C2=C(C)NC(=O)NC2c2cccc(Br)c2)cc1 (stereo not drawn) | 8.58 |
| O=C(Cn1c(NCCO)nc2ccccc21)NCC(F)(F)F | 14.3 |
| CN(C)S(=O)(=O)NCCNC(=O)c1cc(OCC(F)(F)F)ccc1OCC(F)(F)F | 25.3 |
| CCOc1ccccc1NC(=S)NCc1ccccc1 | 10.4 |
| Cc1ccc(C)c(SCC(=O)Nc2cccc(S(=O)(=O)NC3=NCCCCC3)c2)c1 | 7.55 |
| CCOC(=O)CSc1ccc2ccccc2n1 | -0.122 |
| O=C(NCc1ccccc1)c1ccc(CS(=O)(=O)Cc2ccccc2F)o1 | -3.56 |
| O=C(CCN1C(=O)/C(=C/C=C/c2ccccc2)SC1=S)Nc1ccccn1 | 1.91 |
| N#C/C(=C(/O)CSc1ncn[nH]1)c1nc2ccccc2[nH]1 | 9.03 |
| C/C(CCc1ccccc1)=N/NC(=O)C(=O)NC(C)c1ccccc1 (stereo not drawn) | 15.7 |
| O=C1NC2(CCCCC2)C(=O)N1c1ccc(Cl)cc1 | 18.9 |
| COC(=O)C1=C(c2ccc(OC(F)(F)F)cc2)C[C@@H]2CC[C@H]1N2C(=O)NC1Cc2ccccc2C1 | 4.27 |
| COc1cc(Br)cc(Br)c1OCC(=O)N/N=C/c1c(C)n(C)n(-c2ccccc2)c1=O | 3.48 |
